# The list shows a part of the results. Single values of this set are uncertain. Values with irradiation are relative to irradiated vehicle.
# Legend:
# A549-Dual [1] = experiment: NF-kB reporter (SEAP) activity, viability-corrected, relative to vehicle (fold change vs vehicle); higher = more activation of STING-IRF / NF-kB immune response reporter
# A549-Dual [2] = experiment: ISRE reporter (Lucia luciferase) activity, viability-corrected, relative to vehicle (fold change vs vehicle); higher = more activation of STING-IRF / NF-kB immune response reporter
# 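Throughout, for NF-kB reporter (SEAP) activity, viability-corrected, relative to vehicle: viability correction based on the alamar blue assay, with concentrations leaving 10% survival or less dropped.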
Compound,"NF-kB reporter (A549-Dual [1]; 0.1 µM, irradiation: 8 Gy/4 fr)","NF-kB reporter (A549-Dual [1]; 0.1 µM, irradiation: none)","NF-kB reporter (A549-Dual [1]; 0.3 µM, irradiation: none)","NF-kB reporter (A549-Dual [1]; 1 µM, irradiation: 8 Gy/4 fr)","NF-kB reporter (A549-Dual [1]; 1 µM, irradiation: none)","ISRE reporter (A549-Dual [2]; 0.1 µM, irradiation: 8 Gy/4 fr)","ISRE reporter (A549-Dual [2]; 0.1 µM, irradiation: none)","ISRE reporter (A549-Dual [2]; 0.3 µM, irradiation: none)","ISRE reporter (A549-Dual [2]; 1 µM, irradiation: 8 Gy/4 fr)","ISRE reporter (A549-Dual [2]; 1 µM, irradiation: none)","NF-kB reporter (A549-Dual [1]; 0.3 µM, irradiation: 8 Gy/4 fr)","NF-kB reporter (A549-Dual [1]; 3 µM, irradiation: 8 Gy/4 fr)","NF-kB reporter (A549-Dual [1]; 3 µM, irradiation: none)","NF-kB reporter (A549-Dual [1]; 10 µM, irradiation: 8 Gy/4 fr)","NF-kB reporter (A549-Dual [1]; 10 µM, irradiation: none)","ISRE reporter (A549-Dual [2]; 0.3 µM, irradiation: 8 Gy/4 fr)","ISRE reporter (A549-Dual [2]; 3 µM, irradiation: 8 Gy/4 fr)","ISRE reporter (A549-Dual [2]; 3 µM, irradiation: none)","ISRE reporter (A549-Dual [2]; 10 µM, irradiation: 8 Gy/4 fr)","ISRE reporter (A549-Dual [2]; 10 µM, irradiation: none)"
CCC1(O)C(=O)OCc2c1cc1n(c2=O)Cc2c-1nc1ccccc1c2CCNC(C)C.Cl (stereo not drawn) [Belotecan (CKD-602) hydrochloride],1.44,2.07,3.32,3.63,7.18,1.4,6.78,7.09,1.33,8.56,,,,,,,,,,
CN(C)C(=O)Oc1cc(OC(=O)N(C)C)cc(C(O)CNC(C)(C)C)c1.Cl (stereo not drawn) [Bambuterol HCl],1.15,1.39,1.5,1.48,0.998,1.01,1.23,1.27,1.2,0.893,0.907,1.64,1.09,1.12,1.39,0.974,0.954,1,1.08,0.884
CNC(C)Cc1ccccc1OC.Cl (stereo not drawn) [Methoxyphenamine Hydrochloride],,,,,,,,,,,,,,0.738,1.12,,,,1.01,0.931
COc1cc2c(cc1OC)C1CC(=O)C(CC(C)C)CN1CC2 (stereo not drawn) [Tetrabenazine (Xenazine)],,,,,,,,,,,,,,0.889,0.966,,,,0.993,0.9
O.O=P1(N(CCCl)CCCl)NCCCO1 (stereo not drawn) [Cyclophosphamide Monohydrate],0.886,0.955,0.912,0.821,0.864,0.905,0.924,0.877,0.864,0.823,1.02,0.927,0.778,0.846,0.842,1.07,0.901,0.698,0.893,0.793
COc1cc2c(c(OC)c1OC)-c1ccc(OC)c(=O)cc1C(NC(C)=O)CC2 (stereo not drawn) [Colchicine],0.896,2.62,2.8,1.1,2.04,0.0834,0.968,1.51,0.054,0.788,0.932,1.56,2.3,0.909,1.85,0.107,0.0806,0.774,0.0815,0.63
C=CCN1CC(C(=O)N(CCCN(C)C)C(=O)NCC)CC2c3cccc4[nH]cc(c34)CC21 (stereo not drawn) [Cabergoline],0.977,1.09,0.986,1.03,1.12,1.04,1.05,1.12,1.1,1.06,0.984,1.05,1.1,1.06,1.04,1.15,1.26,0.881,1.2,1.24
"Cl.NCC(O)c1ccc(O)cc1 (racemic) [(+,-)-Octopamine HCl]",1.44,2.19,2.25,1.98,1.59,1.29,2.13,1.98,1.48,1.3,1.26,2.2,1.54,1.77,1.14,1.24,1.23,1.36,1.55,0.941
O=C(O)c1nn(Cc2ccc(Cl)cc2Cl)c2ccccc12 [Lonidamine],1.32,1.3,1.54,1,1.84,1.1,1.13,1.24,1.07,1.23,1,1.18,1.47,1.06,0.997,1.01,1.04,0.756,1.01,0.797
Br.COC(=O)C1=CCCN(C)C1 [Arecoline HBr],,,,,,,,,,,,,,0.768,1.12,,,,0.64,0.96
COC1=CC2C3Cc4ccc(OC)c(O)c4C2(CCN3C)CC1=O (stereo not drawn) [Sinomenine],0.98,1.73,1.87,1.44,1.33,1.14,1.4,1.29,1.14,1.2,1.26,1.9,1.2,1.32,0.927,1.14,1.22,1.26,1.26,0.803
NC(Cc1ccc(N(CCCl)CCCl)cc1)C(=O)O (stereo not drawn) [Melphalan],1.12,1.24,1.28,1.15,1.66,1.12,1.25,1.23,1.08,1.46,0.959,1.03,1.39,0.803,1.02,0.983,0.907,1.21,0.875,1.27
CC[n+]1c(-c2ccccc2)c2cc(N)ccc2c2ccc(N)cc21.[Br-] [Ethidium bromide],,,,,,,,,,,,,,2.34,3.25,,,,0.113,0.353
CC1CCC2N(C1)CC1C3CC4C(CC(O)C5CC(O)CCC54C)C3CCC1C2(C)O (stereo not drawn) [Peimine],0.959,0.829,0.776,1.06,0.828,0.692,0.76,0.617,0.775,0.802,0.94,1.18,0.775,1.05,0.741,0.77,1.17,0.838,1.14,0.749
CC(C)=CCOc1c2occc2cc2ccc(=O)oc12 [Imperatorin],,,,,,,,,,,,,,0.916,1.12,,,,0.369,0.379
CC1CCC2C(C)C(=O)OC3OC4(C)CCC1C32OO4 (stereo not drawn) [Artemisinin],1.25,1.63,1.14,1.4,0.884,1.09,1.19,1.12,1.08,0.858,1.18,1.52,0.986,0.852,1.02,1.02,1.04,0.904,0.836,0.808
CC(=O)OC1CN2CCC1CC2.Cl (stereo not drawn) [Aceclidine HCl],,,,,,,,,,,,,,0.731,0.81,,,,0.617,0.508
COC1=CC2C3Cc4ccc(OC)c(O)c4C2(CCN3C)CC1=O.Cl (stereo not drawn) [Sinomenine hydrochloride],1.12,1.14,0.961,1.34,0.909,1.29,1.08,1.12,1.12,1.03,1.14,1.11,1.04,1.15,1.18,1.26,1.07,1.06,1.15,0.857
O=C(O)CCCc1ccc(N(CCCl)CCCl)cc1 [Chloroambucil],1.31,1.23,1.44,1.09,1.64,1.09,1.18,1.24,1.13,1.32,1.09,1.19,1.45,1.03,1.19,1.14,1.2,1.13,1.08,1.86
Cl.Cn1c(CCCC(=O)O)nc2cc(N(CCCl)CCCl)ccc21 [Bendamustine HCl],1.06,1.07,1.11,0.872,1.01,1.03,1.03,1.1,0.988,0.954,1.16,1.1,0.826,0.909,0.922,1.33,0.983,0.844,1.02,0.806
c1ccc2c(c1)Sc1ccccc1N2CC1CN2CCC1CC2 (stereo not drawn) [Mequitazine],1.2,1.57,1.4,1.34,1.11,1.14,1.47,1.36,1.3,0.988,1.27,1.66,1.15,0.987,0.446,1.08,1.11,1.7,1.51,2.31
Cn1cc(C2=C(c3cn(C4CCN(Cc5ccccn5)CC4)c4ccccc34)C(=O)NC2=O)c2ccccc21,1.03,0.928,1.05,0.894,1.12,0.975,0.991,0.945,0.907,1.07,0.893,1.21,1.13,1.48,1.45,1.06,1.24,1.14,1.3,1.06
Cn1c(CCCC(=O)O)nc2cc(N(CCCl)CCCl)ccc21 [Bendamustine],0.862,0.946,0.897,0.944,0.887,0.915,0.862,0.839,0.952,0.889,0.881,0.923,0.805,0.917,0.836,0.873,0.962,0.636,0.96,0.822
CCC1=CC2CN3CCc4c([nH]c5ccccc45)C(C(=O)OC)(C2)C13 (stereo not drawn) [Catharanthine],1.35,1.26,1.8,1.16,1.87,1.21,1.42,1.36,1.21,1.18,1.21,1.19,1.4,1.2,1.26,1.19,1.23,0.875,1.14,1.28
COc1c(C)c(O)cc2[o+]c(-c3ccccc3)ccc12.[O-][Cl+3]([O-])([O-])[O-] [Dracohodin perochlorate],,,,,,,,,,,,,,0.494,0.689,,,,0.171,0.234

# Source: the supplement of paper PMC9174493
